The source of these data is the antibiotic and cytotoxicity screens of Wong et al. (2023).

One assay has as its system HSkMC. The assay can be described thus: cytotoxicity call (relative viability < 0.9). The note with it: 10 µM.
Another assay has as its system HepG2. The assay can be described thus: cytotoxicity call (relative viability < 0.9). The note with it: 10 µM.
The test system of a further assay is S. aureus RN4220. Put plainly: growth inhibition call (relative growth <= 0.2). The note with it: 50 µM.

The list shows a part of the results.

Consider `COc1ccc(S(=O)(=O)Nc2cccc3c2O[C@@H](CN(C)Cc2ccc(Oc4ccccc4)cc2)[C@H](C)CN([C@H](C)CO)C3=O)cc1`, for which the cytotoxicity call with HSkMC and in the assay on HepG2 was “inactive” throughout. Further, in the assay with S. aureus RN4220, the growth inhibition call was “inactive”.

As to `C[C@H](CO)N1C[C@H](C)[C@@H](CN(C)C(=O)c2ccc3c(c2)OCO3)Oc2cc(-c3ccncc3)ccc2S1(=O)=O`, the cytotoxicity call in the assay on HSkMC and in the assay on HepG2 was “inactive” in each case. In the assay on S. aureus RN4220, the growth inhibition call is “inactive”.

For the molecule `C[C@H]1CN([C@@H](C)CO)C(=O)c2cccc(NC(=O)NC3CCCCC3)c2O[C@@H]1CN(C)Cc1ccc(-c2ccccc2)cc1`, the cytotoxicity call in the assay on HSkMC and in the assay on HepG2 was “inactive” in each case. Further, the growth inhibition call with S. aureus RN4220 is “inactive”.

Turning to `COC(=O)[C@H](Cc1ccccc1)N1CC2=C[C@@H](C3CC3)n3c(=O)n(C)c(=O)n3[C@H]2[C@@H]1[C@@H](O)CCn1cc(C(=O)NO)nn1`, the cytotoxicity call with HSkMC and in the assay on HepG2 was “inactive” in each case. Moreover, the growth inhibition call in the assay on S. aureus RN4220 was “inactive”.

As for `O=C(C[C@H]1CC[C@@H]2[C@H](COC[C@H](O)CN2S(=O)(=O)c2ccc(Cl)cc2)O1)N[C@H]1CCN(Cc2ccccc2)C1`, the cytotoxicity call in the assay with HSkMC and in the assay with HepG2 was “inactive” each time. Also, in the assay on S. aureus RN4220, the growth inhibition call was “inactive”.

With `Cn1cnc(S(=O)(=O)N[C@@H]2C=C[C@@H](CC(=O)NCC3CC3)O[C@@H]2CO)c1`, the cytotoxicity call with HSkMC and in the assay with HepG2 was “inactive” each time. In the assay on S. aureus RN4220, the growth inhibition call is “inactive”.

In the case of `COc1ccc(cc1)NC(=O)N1CC[C@]2(CC1)CN([C@@H](CO)c1[nH]c3cc(ccc3c12)OC)C(=O)CN1CCOCC1`, the cytotoxicity call in the assay on HSkMC and with HepG2 was “inactive” in each case. For the same molecule, the growth inhibition call in the assay with S. aureus RN4220 was “inactive”.

As to `CNC[C@@H]1Oc2ccc(NC(=O)CCN3CCOCC3)cc2CC(=O)N([C@H](C)CO)C[C@@H]1C`, the cytotoxicity call with HSkMC and with HepG2 was “inactive” in each case. Further, the growth inhibition call with S. aureus RN4220 is “inactive”.

Consider `C[C@@H]1CCCCO[C@H](CN(C)C(=O)c2ccccc2)[C@H](C)CN([C@@H](C)CO)C(=O)c2cc(NC(=O)CCCCCC(=O)Nc3ccccc3N)ccc2O1`, for which the cytotoxicity call in the assay on HSkMC and in the assay on HepG2 was “inactive” in each case. Moreover, in the assay on S. aureus RN4220, the growth inhibition call was “inactive”.

As to `C[C@H](CO)N1C[C@H](C)[C@@H](CN(C)C(=O)CCC(F)(F)F)OCCCC[C@H](C)Oc2ccc(NC(=O)Cc3ccccc3)cc2C1=O`, the cytotoxicity call in the assay with HSkMC and with HepG2 was “inactive” in each case. The growth inhibition call with S. aureus RN4220 was “inactive”.

In the case of `C[C@H](CO)N1C[C@H](C)[C@H](CN(C)Cc2ccc(C(=O)O)cc2)Oc2ccc(NC(=O)CCN3CCOCC3)cc2C1=O`, the cytotoxicity call in the assay on HSkMC and in the assay on HepG2 was “inactive” each time. Besides, in the assay on S. aureus RN4220, the growth inhibition call was “inactive”.

With `CO[C@H]1CN(C)C(=O)c2cc(NC(=O)Nc3ccccc3)ccc2OC[C@H](C)N(C(=O)CN(C)C)C[C@H]1C`, the cytotoxicity call in the assay on HSkMC and with HepG2 was “inactive” throughout. The growth inhibition call in the assay on S. aureus RN4220 is “inactive”.

`Cc1noc(C)c1NC(=O)N(C)C[C@@H]1Oc2c(NC(=O)Nc3ccc(C(F)(F)F)cc3)cccc2C(=O)N([C@@H](C)CO)C[C@@H]1C`: the cytotoxicity call in the assay on HSkMC and in the assay with HepG2 was “inactive” throughout. Besides, the growth inhibition call in the assay with S. aureus RN4220 is “inactive”.

For the molecule `Cc1noc(C)c1S(=O)(=O)N(C)C[C@H]1Oc2ccc(NC(=O)Nc3ccccc3)cc2CC(=O)N([C@@H](C)CO)C[C@@H]1C`, the cytotoxicity call with HSkMC and in the assay with HepG2 was “inactive” in each case. Moreover, the growth inhibition call in the assay on S. aureus RN4220 was “inactive”.

As to `COc1ccc(NC(=O)N(C)C[C@@H]2OCCCC[C@H](C)Oc3ccc(NS(=O)(=O)c4ccc(Cl)cc4)cc3C(=O)N([C@@H](C)CO)C[C@@H]2C)cc1`, the cytotoxicity call with HSkMC and in the assay with HepG2 was “inactive” in each case. For the same molecule, in the assay with S. aureus RN4220, the growth inhibition call is “inactive”.

With `CCOC(=O)c1[nH]c(C)c(C(=O)C2=C(O)C(=O)N(CCN3CCOCC3)[C@H]2c2cccc(OC)c2OC)c1C`, the cytotoxicity call with HSkMC and with HepG2 was “inactive” in each case. Moreover, the growth inhibition call in the assay with S. aureus RN4220 is “inactive”.

Regarding `CO[C@H]1C[C@@H](O[C@@H](O)[C@@H](O)[C@@H](O)[C@@H](O)[C@@H](O)CO)c2c(cc3cc(C)oc(=O)c3c2O)OC1=O`, the cytotoxicity call in the assay on HSkMC and in the assay with HepG2 was “inactive” each time. In addition, the growth inhibition call in the assay on S. aureus RN4220 is “inactive”.

As to `C[C@@H]1CCCCO[C@H](CN(C)S(=O)(=O)c2ccc(Cl)cc2)[C@H](C)CN([C@@H](C)CO)C(=O)c2cc(NC(=O)Nc3ccccc3)ccc2O1`, the cytotoxicity call with HSkMC and with HepG2 was “inactive” throughout. Further, the growth inhibition call in the assay on S. aureus RN4220 is “inactive”.

On to `O=C1CO[C@H]2CN(c3ccccn3)C[C@@H]2N1`, for which the cytotoxicity call in the assay on HSkMC and with HepG2 was “inactive” each time. Further, the growth inhibition call with S. aureus RN4220 is “inactive”.

`COc1ccc(S(=O)(=O)Nc2ccc3c(c2)CC(=O)N([C@@H](C)CO)C[C@@H](C)[C@H](CN(C)Cc2ccc(-c4ccccc4)cc2)O3)cc1`: in the assay on HSkMC, the cytotoxicity call was “inactive”. Besides, the cytotoxicity call in the assay with HepG2 is “active”. In addition, the growth inhibition call in the assay with S. aureus RN4220 is “inactive”.

As to `Cc1noc(C)c1NC(=O)Nc1ccc2c(c1)C(=O)N([C@@H](C)CO)C[C@H](C)[C@@H](CN(C)CC1CCCCC1)OCCCC[C@H](C)O2`, the cytotoxicity call in the assay with HSkMC and in the assay with HepG2 was “inactive” throughout. In addition, the growth inhibition call with S. aureus RN4220 is “inactive”.

Regarding `Cc1noc(C)c1S(=O)(=O)Nc1ccc2c(c1)C(=O)N([C@H](C)CO)C[C@@H](C)[C@@H](CN(C)C)OCCCC[C@H](C)O2`, the cytotoxicity call in the assay on HSkMC (human skeletal muscle cells) and with HepG2 was “inactive” in each case. The growth inhibition call in the assay with S. aureus RN4220 was “inactive”.

In the case of `COc1cccc(S(=O)(=O)N(C)C[C@H]2Oc3cc(C4=CCCC4)ccc3S(=O)(=O)N([C@H](C)CO)C[C@H]2C)c1`, the cytotoxicity call with HSkMC and with HepG2 was “inactive” in each case. The growth inhibition call in the assay with S. aureus RN4220 is “inactive”.

As to `C[C@H](CO)N1C[C@H](C)[C@H](CN(C)S(=O)(=O)c2cccs2)Oc2ncc(C#CC(C)(C)O)cc2C1=O`, the cytotoxicity call with HSkMC and in the assay with HepG2 was “inactive” each time. In addition, the growth inhibition call in the assay on S. aureus RN4220 was “inactive”.

As for `C[C@H]1CCCCO[C@@H](CN(C)C(=O)Nc2ccc3c(c2)OCO3)[C@@H](C)CN([C@@H](C)CO)C(=O)c2cc(NC(=O)Cc3ccccc3)ccc2O1`, the cytotoxicity call with HSkMC and in the assay on HepG2 was “inactive” throughout. The growth inhibition call in the assay on S. aureus RN4220 was “inactive”.

For the molecule `C[C@H](CO)N1C[C@H](C)[C@H](CN(C)Cc2ccc(C(F)(F)F)cc2)Oc2c(NC(=O)Nc3cccc4ccccc34)cccc2C1=O`, the cytotoxicity call with HSkMC and in the assay on HepG2 was “inactive” in each case. In addition, the growth inhibition call in the assay on S. aureus RN4220 is “inactive”.

In the case of `C[C@H](CO)N1C[C@H](C)[C@H](CN(C)Cc2ccc(Cl)c(Cl)c2)Oc2c(NC(=O)C3CCCCC3)cccc2C1=O`, the cytotoxicity call with HSkMC and in the assay with HepG2 was “inactive” each time. For the same molecule, the growth inhibition call in the assay with S. aureus RN4220 was “inactive”.
